From article PMC4336329 (PLoS ONE, 2015)
About 2,200 (0.71%) of roughly 310,000 compounds showed an effect of 50% or more. The effect is printed as a negative number. Some of the results follow.

The compounds below were run against human ether-à-go-go-related gene (hERG) potassium channel (human, UniProt Q12809) (assay: primary screen, population patch clamp on CHO cells stably expressing hERG).
Chain of human ether-à-go-go-related gene (hERG) potassium channel (Q12809 whole entry, looked up): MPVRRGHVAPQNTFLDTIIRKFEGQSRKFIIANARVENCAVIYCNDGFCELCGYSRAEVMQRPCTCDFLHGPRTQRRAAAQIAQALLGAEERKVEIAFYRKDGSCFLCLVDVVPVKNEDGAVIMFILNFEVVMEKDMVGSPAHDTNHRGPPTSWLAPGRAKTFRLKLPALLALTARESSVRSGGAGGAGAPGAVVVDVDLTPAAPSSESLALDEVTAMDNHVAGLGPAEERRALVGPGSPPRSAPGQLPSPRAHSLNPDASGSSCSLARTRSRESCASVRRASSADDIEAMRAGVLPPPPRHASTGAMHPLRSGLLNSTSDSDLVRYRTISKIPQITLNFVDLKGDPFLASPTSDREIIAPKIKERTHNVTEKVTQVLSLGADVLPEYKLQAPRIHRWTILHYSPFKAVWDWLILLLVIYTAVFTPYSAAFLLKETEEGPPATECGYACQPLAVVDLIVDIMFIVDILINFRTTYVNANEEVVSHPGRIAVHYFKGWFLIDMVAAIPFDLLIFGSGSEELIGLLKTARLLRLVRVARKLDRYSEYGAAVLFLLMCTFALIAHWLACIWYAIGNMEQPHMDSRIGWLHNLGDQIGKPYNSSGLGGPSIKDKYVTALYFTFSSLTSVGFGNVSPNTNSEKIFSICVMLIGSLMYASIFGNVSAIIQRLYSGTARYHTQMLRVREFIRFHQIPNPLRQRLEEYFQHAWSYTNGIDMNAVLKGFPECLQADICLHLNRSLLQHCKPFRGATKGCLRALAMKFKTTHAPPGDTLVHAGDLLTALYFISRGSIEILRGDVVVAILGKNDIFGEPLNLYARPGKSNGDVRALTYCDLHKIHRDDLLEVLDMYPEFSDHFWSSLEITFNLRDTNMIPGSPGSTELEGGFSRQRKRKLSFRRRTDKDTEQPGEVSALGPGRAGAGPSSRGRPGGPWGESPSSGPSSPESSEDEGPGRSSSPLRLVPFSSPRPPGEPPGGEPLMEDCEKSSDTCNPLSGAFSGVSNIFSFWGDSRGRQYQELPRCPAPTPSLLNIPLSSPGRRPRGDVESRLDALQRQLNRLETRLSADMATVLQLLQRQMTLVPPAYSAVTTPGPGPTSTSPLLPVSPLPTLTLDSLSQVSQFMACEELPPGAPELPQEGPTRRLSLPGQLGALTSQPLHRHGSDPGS

Row | SMILES | hERG current change (%, negative = inhibition) at 1uM [%]
1 | C=CCOc1ccc(/C=C2\SC(=S)N(NS(=O)(=O)c3ccc(C)cc3)C2=O)cc1 | 4.41
2 | COc1cc2cc(CN(CCO)C(=O)c3cccs3)c(=O)[nH]c2cc1OC | 1.16
3 | Cc1cccc(C)c1NC(=O)C1CCCN1S(=O)(=O)c1ccccc1 (stereo not shown) | 10.8
4 | CC(C)CNC(=S)NC(=O)c1csc([N+](=O)[O-])c1 | 13.8
5 | C=CCOC(=O)C1=C[C@@H](c2ccc3c(c2)OCO3)C[C@@H](OCc2ccc(CO)cc2)O1 | 14.5
6 | COc1ccc(C(=O)NC23CC4CC(CC(C4)C2)C3)cc1OC | 14.6
7 | CNC(=S)N1CCn2cccc2C1c1cccnc1 (stereo not shown) | 7.34
8 | NS(=O)(=O)c1ccc(NNC(=O)c2ccc(F)cc2F)cc1 | 13.8
9 | O=C1C2C3C=CC(C3)C2C(=O)N1CCCCCCN1C(=O)C2C3C=CC(C3)C2C1=O (stereo not shown) | -0.213
10 | COc1ccccc1Nc1nc(N)nc(CN2CCCCC2)n1 | -4.26
11 | CCOC(=O)C1CCN(C(=O)COc2ccc3c(c2)OCO3)CC1 | 13
12 | CC(=O)Nc1cnn(Cc2ccc(Br)cc2)c1 | 7
13 | O=C(c1ccc(Cl)cc1)N1CCC(O)(CSc2ccccc2)CC1 | 1.27
14 | Cc1cccc(NC(=O)c2ccccc2NC(=O)C2CCCCC2)c1C | 11.3
15 | O=C(COc1cc(Cl)c(Cl)cc1Cl)Nn1cnnc1 | -8.45
16 | O=C(CCCCC(=O)NC1CCCC1)NC1CCCC1 | 13.6
17 | CCN(CC)CCCCCC(=O)Nc1ccccc1C(=O)Nc1ccccc1 | -16.5
18 | CC(=O)CC1(OC(C)=O)C(=O)N(C)c2ccccc21 (stereo not shown) | 3.54
19 | CC(C)Sc1cc(N2CCCC2)nc(-c2ccccc2Cl)n1 | 8.95
20 | O=C1C2CCc3ccccc3C2N1c1ccccc1 (stereo not shown) | 5.66
21 | CCOc1ccc(NC(=O)c2c(O)[nH]c(=O)[nH]c2=O)cc1 | 11
22 | Cc1ccc(C)c(N2C(=O)c3cc(N4CCOCC4)c([N+](=O)[O-])cc3C2=O)c1 | 1.55

Row | SMILES | hERG current change (%, negative = inhibition) at 1uM [%]
23 | CC1CCN(C(=O)Cn2c3ccc(F)cc3c3nc4n(c(=O)c32)CCCS4)CC1 | 9.65
24 | CCOC(=O)N1CCN(S(=O)(=O)c2ccc(C(=O)Nc3nnc(CC)o3)cc2)CC1 | 1.65
25 | COc1ccc(-c2cc3c(=O)n(CC(=O)NCc4ccccc4F)ncn3n2)cc1 | 11.9
26 | CCOC(=O)C1(CCOc2ccccc2)CCN(Cc2ccc(NC(C)=O)cc2)CC1 | -38.6
27 | C=CCN(Cc1cn(C)nc1-c1cccc(Cl)c1)C1CCS(=O)(=O)C1 (stereo not shown) | 7.57
28 | COC(=O)c1c(NC(=O)CN2CCN(c3ccccc3OC)CC2)c2cc(C)ccc2n1C | 17.1
29 | Cc1ccc(-c2cc(-c3ccccc3)no2)c(O)c1 | 6.71
30 | C[C@@]12C(=O)N(CCc3c[nH]c4ccccc34)CC(=O)N1[C@H]1c3ccccc3OC[C@@H]1[C@@H]2c1ccccc1 | 10.3
31 | Nc1n[nH]c(=S)n1-c1ccc(Cl)cc1 | 14.9
32 | Cc1cc2c(c(=O)o1)C(c1cccs1)C(C#N)=C(N)O2 (stereo not shown) | 3.76
33 | COc1ccccc1-n1c(C)c2c(OC)cccc(=O)c2c1C | -0.267
34 | Cc1ccc(CN(N=Nc2nonc2N)c2nonc2N)c(C)c1 | 17.2
35 | COc1nccnc1NS(=O)(=O)c1ccc(N/C=C2\CCCCC2=O)cc1 | 11.8
36 | CCc1ccc(C2=NN(CCC(=O)NCC3CCCO3)C(=O)CC2)cc1 (stereo not shown) | 17.6
37 | CCCC[C@@H]1CNC(=S)N1CCc1cccc2ccccc12 | 16.2
38 | Cc1ccc(C(=O)Oc2ccc(-c3nnco3)cc2)o1 | 1.7
39 | C=CCNC(=O)C1CCN(C(=O)c2ccc(-c3ccccc3)cc2)CC1 | 12
40 | NC(=O)NC(=O)C(Nc1ccc(N2CCCCC2)cc1)c1ccccc1 (stereo not shown) | 13.7
41 | Cc1cccn2c(=O)c(C=O)c(N3CCN(c4ccccc4)CC3)nc12 | -3.19
42 | CC(C)C[C@H](NC(=O)c1nc[nH]c1C(=O)NCC(=O)OC(C)(C)C)C(=O)OC(C)(C)C | 17
43 | N=C1C(c2nc3ccccc3s2)=C(O)CN1Cc1ccccc1 | 0.75
44 | COc1ccc(NC(=O)CN(C)C(=O)Cc2ccc(S(=O)(=O)N3CCOCC3)s2)cc1 | 12.2

Row | SMILES | hERG current change (%, negative = inhibition) at 1uM [%]
45 | CCc1ccc(N2CCN(S(=O)(=O)CC34CCC(CC3=O)C4(C)C)CC2)cc1 (stereo not shown) | 13.8
46 | COc1cccc(CN2CCNC(=O)C2CC(=O)N(C)CC2CCOCC2)c1OC (stereo not shown) | 10.6
47 | CN(C)c1ccc(CNCCC(Cc2ccccc2)c2ccco2)cc1 (stereo not shown) | -8.96
48 | Cc1nn(S(=O)(=O)c2ccccc2)c(C)c1S(=O)(=O)N1CCOCC1 | 19.2
49 | CC(CN1CCC(n2nccc2NC(=O)CCCc2ccccc2)CC1)c1ccccc1 (stereo not shown) | 3.19
50 | CC(C)CCN1CCN(Cc2cnc(-c3ccccc3)s2)CC1CCO (stereo not shown) | -16.6
51 | CN(CCC#N)S(=O)(=O)c1ccc2c(c1)c(=O)n(C)c(=O)n2C | 10.5
52 | COc1cccc(C2C(C(=O)Nc3ccccc3)=C(C)N=c3s/c(=C/c4ccc(OCC(=O)O)cc4)c(=O)n32)c1 (stereo not shown) | 1.32
53 | COc1ccccc1CNC(=O)c1nn(-c2ccc(C)cc2)c(=O)c2c1c1ccccc1n2C | -3.52
54 | CC1Cc2ccccc2N1C(=O)CSc1ccccc1 (stereo not shown) | 5.02
55 | O=S(=O)(c1ccc(Br)s1)n1cccn1 | 0.937
56 | O=C(CN1CC=C(c2ccccc2)CC1)NC(=O)NCc1ccccc1 | 9.11
57 | Cc1ccc(-c2cc[n+](Cc3ccccc3)cc2)cc1.[Cl-] | 0.359
58 | COc1cc(-c2nc3cnccn3c2Nc2ccc(C(C)C)cc2)ccc1O | 22.8
59 | CCC(C)C(=O)Nc1nc(C)c(-c2csc(Nc3ccccc3OC)n2)s1 (stereo not shown) | 17.1
60 | O=C(NCc1cccc(F)c1)c1cccc(OC2CCN(C(=O)C3CC3)CC2)c1 | -5.87
61 | O=C(O)c1cccnc1SC1CC(=O)N(c2ccccc2)C1=O (stereo not shown) | 19.8
62 | Cc1c(NC(=O)CCC2CCCCC2)cc(C(=O)N2CCOCC2)cc1[N+](=O)[O-] | 8.15
63 | CN(C)C(CNC(=O)CCc1nc2cc(Cl)ccc2n(Cc2ccccc2)c1=O)c1ccccc1 (stereo not shown) | -34.7
64 | CCN(CC(=O)NCc1cccs1)C(=O)c1cccc(S(=O)(=O)NCc2ccccc2)c1 | -8.51
65 | Cc1[nH]c2ccccc2c1C(=O)C(=O)N1CCN(c2ccccc2)CC1 | 10
66 | COc1ccc(OC)c(N(CC(=O)N2CCC(C)CC2)S(=O)(=O)c2ccc(OC)c(OC)c2)c1 | 3.65

Row | SMILES | hERG current change (%, negative = inhibition) at 1uM [%]
67 | c1cnc(NC2CCCCCC2)nc1 | 4.67
68 | Nc1ncc2c(n1)-c1ccccc1CC2 | 9.68
69 | CCCCOc1c(C(=O)Nc2ccccc2)nnn1-c1ccccc1 | 4.41
70 | Cc1cccc(Cn2c(N3CCCCC3C)nc3c2c(=O)[nH]c(=O)n3C)c1 (stereo not shown) | -18
71 | COc1ccccc1NS(=O)(=O)c1ccc(OC)c(OC)c1 | 2.13
72 | CCOc1ccc(-c2nc(CN(Cc3ccccc3)C[C@@H]3CCC(=O)N3)c(C)o2)cc1 | 3.39
73 | CCC1CCCCN1CCCNC(=O)c1ccc2c(c1)N(Cc1ccc(F)cc1)C(=O)c1ccccc1S2=O (stereo not shown) | -13.7
74 | CC(C)c1ccc(C2(O)C(=O)Nc3cc(Br)ccc32)c(O)c1 (stereo not shown) | 18.2
75 | O=C(NCCCN1CCCCC1)c1ccc(CS(=O)c2ccc(F)cc2)o1 (stereo not shown) | 11.2
76 | CC(C)c1ccc(Cc2nnc(NCCCO)[nH]c2=O)cc1 | 17.4
77 | CCC12CN3CCN(CC(C3)/C1=N\NC(=O)c1ccc(F)cc1)C2 | 10.5
78 | Cc1ccc(C(=O)c2cc([N+](=O)[O-])ccc2N2CCCCC2)c(C)c1 | 8.61
79 | CCC(C)NC(=S)Nc1ccc2nc(N3CCOCC3)cc(C)c2c1 (stereo not shown) | 5.7
80 | COc1ccc(/C=C2\N=C3CCCCCN3C2=O)cc1OC | 14.8
81 | O=C1c2cccnc2C(=O)N1Cc1ccc(F)cc1S(=O)(=O)NCc1ccco1 | 0.441
82 | CCOc1ccccc1N1CCN(S(=O)(=O)c2ccc(F)c(F)c2)CC1 | -7.84
83 | Cc1ccc(C(=O)N2CCN(c3cc4c(cc3[N+](=O)[O-])n(C)c(=O)n4C)CC2)cc1 | -18.1
84 | COc1cccc(CNC(=O)CSc2nc3ccc(C)cc3[nH]2)c1 | 14.2
85 | Cc1ccc(OCCC(=O)OCC(=O)NC(=O)NC2CCCCC2)cc1 | 14.2
86 | O=[N+]([O-])c1ccc(S(=O)(=O)Nc2ccc(-c3ccc(N4CCCC4)nn3)cc2)cc1 | 10.7
87 | CCCCn1c(-c2ccccc2)nc2c(=O)n(C)c(=O)[nH]c21 | 11.9
88 | COc1ccccc1NC(=O)CS(=O)(=O)c1cccc2nsnc12 | 7.21
